This is one part of the list.
How the values were obtained:
Test in all cases: glycan array binding signal (z-score within array); higher = stronger binding
Settings in all cases: glycan notation: IUPAC condensed, linker removed
[1] = target: Gal(b1-3)GlcNAc(b1-2)Man(a1-3)[GlcNAc(b1-4)][Gal(b1-3)GlcNAc(b1-2)Man(a1-6)]Man(b1-4)GlcNAc(b1-4)GlcNAc
Method in brief: (§1)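 Columns mapping to the same glycan were averaged after glycan names were converted to IUPAC-condensed notation. The data come from 3228 arrays in the Consortium for Functional Glycomics database, limited to those with an available protein sequence. Binding is reported as a within-array Z-score averaged across arrays of one protein sequence and across linkers.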

[2] = target: Gal(b1-3)GlcNAc(b1-2)[Gal(b1-3)GlcNAc(b1-6)]Man(a1-6)[Gal(b1-3)GlcNAc(b1-2)Man(a1-3)]Man(b1-4)GlcNAc(b1-4)GlcNAc
Method in brief: as §1

[3] = target: Gal(b1-3)GlcNAc(b1-3)Gal(b1-3)GlcNAc
Method in brief: as §1

[4] = target: Gal(b1-3)GlcNAc(b1-3)Gal(b1-4)Glc
Method in brief: as §1

[5] = target: Gal(b1-3)GlcNAc(b1-3)Gal(b1-4)GlcNAc
Method in brief: as §1

[6] = target: Gal(b1-3)GlcNAc(b1-3)Gal(b1-4)GlcNAc(b1-2)Man(a1-3)[Gal(b1-3)GlcNAc(b1-3)Gal(b1-4)GlcNAc(b1-2)Man(a1-6)]Man(b1-4)GlcNAc(b1-4)GlcNAc
Method in brief: as §1

[7] = target: Gal(b1-3)GlcNAc(b1-3)Gal(b1-4)GlcNAc(b1-2)[Gal(b1-3)GlcNAc(b1-3)Gal(b1-4)GlcNAc(b1-6)]Man(a1-6)[Gal(b1-3)GlcNAc(b1-3)Gal(b1-4)GlcNAc(b1-2)Man(a1-3)]Man(b1-4)GlcNAc(b1-4)[Fuc(a1-6)]GlcNAc
Method in brief: as §1

[8] = target: Gal(b1-3)GlcNAc(b1-3)Gal(b1-4)GlcNAc(b1-3)Gal(b1-4)GlcNAc(b1-2)[Gal(b1-3)GlcNAc(b1-3)Gal(b1-4)GlcNAc(b1-3)Gal(b1-4)GlcNAc(b1-6)]Man(a1-6)[Gal(b1-3)GlcNAc(b1-3)Gal(b1-4)GlcNAc(b1-3)Gal(b1-4)GlcNAc(b1-2)Man(a1-3)]Man(b1-4)GlcNAc(b1-4)[Fuc(a1-6)]GlcNAc
Method in brief: as §1

[9] = target: Gal(b1-3)GlcNAc(b1-3)Gal(b1-4)GlcNAc(b1-6)[Gal(b1-3)GlcNAc(b1-3)]Gal(b1-4)Glc
Method in brief: as §1

[10] = target: Gal(b1-3)GlcNAc(b1-3)Gal(b1-4)[Fuc(a1-3)]GlcNAc(b1-6)[Gal(b1-3)GlcNAc(b1-3)]Gal(b1-4)Glc
Method in brief: as §1

[11] = target: Gal(b1-3)GlcNAc(b1-3)GalNAc
Method in brief: as §1

[12] = target: Gal(b1-3)GlcNAc(b1-6)Gal(b1-4)GlcNAc
Method in brief: as §1

[13] = target: Gal(b1-3)GlcNAc(b1-6)GalNAc
Method in brief: as §1

[14] = target: Gal(b1-3)GlcNAc(b1-6)[Gal(b1-3)]GalNAc
Method in brief: as §1

[15] = target: Gal(b1-3)GlcNAc6S
Method in brief: as §1

[16] = target: Gal(b1-3)[Fuc(a1-4)]GlcNAc
Method in brief: as §1

[17] = target: Gal(b1-3)[Fuc(a1-4)]GlcNAc(b1-2)Man
Method in brief: as §1

[18] = target: Gal(b1-3)[Fuc(a1-4)]GlcNAc(b1-2)Man(a1-3)[Gal(b1-3)[Fuc(a1-4)]GlcNAc(b1-2)Man(a1-6)]Man(b1-4)GlcNAc(b1-4)[Fuc(a1-6)]GlcNAc
Method in brief: as §1

[19] = target: Gal(b1-3)[Fuc(a1-4)]GlcNAc(b1-3)Gal(b1-3)[Fuc(a1-4)]GlcNAc
Method in brief: as §1

[20] = target: Gal(b1-3)[Fuc(a1-4)]GlcNAc(b1-3)Gal(b1-4)GlcNAc
Method in brief: as §1

[21] = target: Gal(b1-3)[Fuc(a1-4)]GlcNAc(b1-3)Gal(b1-4)[Fuc(a1-3)]GlcNAc
Method in brief: as §1

[22] = target: Gal(b1-3)[Fuc(a1-4)]GlcNAc(b1-6)GalNAc
Method in brief: as §1

[23] = target: Gal(b1-3)[GlcNAc(b1-6)]GalNAc
Method in brief: as §1

[24] = target: Gal(b1-3)[Neu5Ac(a2-6)]GalNAc
Method in brief: as §1

[25] = target: Gal(b1-3)[Neu5Ac(a2-6)]GlcNAc(b1-4)Gal(b1-4)Glc
Method in brief: as §1

[26] = target: Gal(b1-3)[Neu5Ac(b2-6)]GalNAc
Method in brief: as §1

[27] = target: Gal(b1-4)Gal
Method in brief: as §1

[28] = target: Gal(b1-4)GalNAc(a1-3)[Fuc(a1-2)]Gal(b1-4)GlcNAc
Method in brief: as §1

[29] = target: Gal(b1-4)GalNAc(b1-3)[Fuc(a1-2)]Gal(b1-4)GlcNAc
Method in brief: as §1

[30] = target: Gal(b1-4)Glc
Method in brief: as §1

B1: Blon2468mut (Bifidobacterium longum) (protein)
chain: MTFIKQMMPRYVASMTAGIVAAAMAATCAFAPVANADAVSPTQETIQSTGRHFMVYYRAWRDVTMKGVNTDLPDDNWISMYDIPYGVDVVNIFSYVPSGQEEQAQPFYDKLKSDYAPYLHSRGIKLVRGIDYTGVAVNGFRTFMKEQNKTESEATEADYDAYAKQVIDKYMISVGLDGLDIDMQAHPNDADVKISDNVIRALSKHIGPKSAKPDTTMFLYDTNGSYLNPFKNVAECFDYVAYQQYGSSSDRTARAAADYQPYIGNEFVPGLTFPEEGDMNNRWYDATEPYEESHFYQVASYVREHNLGGMFVYALDRDGRNYDEDLRRIVPSNLLWTKTAIAESEGMALDTAKTAANHYLDRMSLRQVIDDNAASADKARDMVGKAANLYETNKAVLGGDYGEGFSNTYDPTLEAGLLGIDISVLQQQIDKSSEIIGADTAESDAKTALRMARDAAIDGLTGKIYTADQVSAWSQALKAALDATVPVPTPDSTDQNGNRDKVTNHKVQGQPKQLSATGISTDIIVAVGVTLAIAGVALSLSRKLS
glycan array binding signal (z-score) [1]: -0.042
glycan array binding signal (z-score) [2]: -0.083
glycan array binding signal (z-score) [3]: -0.07
glycan array binding signal (z-score) [4]: -0.043
glycan array binding signal (z-score) [5]: -0.079
glycan array binding signal (z-score) [6]: -0.09
glycan array binding signal (z-score) [7]: 0.03
glycan array binding signal (z-score) [8]: 0.124
glycan array binding signal (z-score) [9]: -0.058
glycan array binding signal (z-score) [10]: -0.087
glycan array binding signal (z-score) [11]: -0.075
glycan array binding signal (z-score) [12]: -0.081
glycan array binding signal (z-score) [13]: -0.095
glycan array binding signal (z-score) [14]: -0.06
glycan array binding signal (z-score) [15]: -0.096
glycan array binding signal (z-score) [16]: -0.042
glycan array binding signal (z-score) [17]: -0.067
glycan array binding signal (z-score) [18]: -0.049
glycan array binding signal (z-score) [19]: -0.068
glycan array binding signal (z-score) [20]: -0.083
glycan array binding signal (z-score) [21]: -0.085
glycan array binding signal (z-score) [22]: -0.056
glycan array binding signal (z-score) [23]: -0.055
glycan array binding signal (z-score) [24]: -0.048
glycan array binding signal (z-score) [25]: -0.034
glycan array binding signal (z-score) [26]: -0.065
glycan array binding signal (z-score) [27]: -0.031
glycan array binding signal (z-score) [28]: -0.081
glycan array binding signal (z-score) [29]: -0.041
glycan array binding signal (z-score) [30]: -0.053
